# In the supplement of paper PMC10681739:
# ± gives the standard deviation of the averaged measurements. The full ranking holds about 4,100 sequences; the median of “arbitrary fluorescence units” is about 780, and the highest 2% start at about 22,000. Some of the results follow.
# Target: T1, ETS1 (UniProt P14921)
# T1 sequence: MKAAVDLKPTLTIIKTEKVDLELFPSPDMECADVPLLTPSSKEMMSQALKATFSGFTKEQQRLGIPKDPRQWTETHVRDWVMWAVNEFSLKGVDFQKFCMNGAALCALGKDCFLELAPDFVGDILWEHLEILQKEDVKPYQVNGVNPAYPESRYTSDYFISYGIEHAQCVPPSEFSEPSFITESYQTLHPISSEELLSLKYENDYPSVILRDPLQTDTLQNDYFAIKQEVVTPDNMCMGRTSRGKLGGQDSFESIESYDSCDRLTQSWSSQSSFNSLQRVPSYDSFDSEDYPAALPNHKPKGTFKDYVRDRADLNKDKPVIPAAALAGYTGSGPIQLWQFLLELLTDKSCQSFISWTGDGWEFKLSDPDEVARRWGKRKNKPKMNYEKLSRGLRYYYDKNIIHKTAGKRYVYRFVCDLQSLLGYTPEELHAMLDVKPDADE
# Assay: ETS1 binding intensity (PBM fluorescence), ETS1 alone (arbitrary fluorescence units); higher = stronger binding
# Details: ETS1 concentration 1 nM; RUNX1 concentration 0 nM
# How it was run: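 Double-stranded Agilent 4 × 180k arrays held 36-bp genomic probes whose RUNX1 partner site was mutated, and these were incubated with 1 nM full-length recombinant human ETS1 in the absence of RUNX1 under standard PBM protocols. Bound protein was labelled with anti-ETS1 antibody (Cell Signaling Technology 14069) plus an Alexa488-conjugated secondary and read on a GenePix 4400A, with four spots printed per sequence. Binding level is reported as raw spot fluorescence intensity summarised over replicate spots.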
row,Sequence,ETS1 binding intensity
1,TTCATAAAGGAGAGGAAACCTGACCTCGACAGAAAG,451
2,CTGACACTTCCGGGAGCCTTGTAGGCACAGGAATCA,20700
3,ACCGTTCTCCGGCCGCCCTCGGGCACTTCCGGTCCT,10200
4,TAAAACCAAACTACAGATGACACATTTCCTTTCCAC,613
5,GCATTTTGGTGGAAGACGCGCGCCGGATCTCTCAGG,356
6,GTAGGGGAGGGACCCCAGGGAGGCGGAAGTCCTTGT,873
7,GGAGCATCCCGGAAGTCGTCACTTCGGCCGCTCCCG,12200
8,TTTCTTCGTGGGAGGGAGTGGGGGAAGTTGACTGAT,984
9,TCCTTATAAATCCACCTATATCCGTTCTCATACACA,2020
10,GTAAAATGCGCTCGGGTAGAAACCTACTTCCGGTCC,13500
11,CAGCTTTCCGGCCTGCAGCACAGGCAATGTGATTTT,6830
12,CTCCTTCCTGTGTGTTACTCTTAAAAATCACAGAGG,7320
13,GTGGGGCAGGATGTGCTTGCCTGGCTGCTGTTGGAC,2130
14,GTGCGGAAGCGCGCCAAGGCACGTGGCCGCTTCTGT,1900
15,TCGCTAGCGACAGCCATTTTTGTACCCGGGAAGCCC,335
16,GCAGTTCATACCAAAAAACCCATCGTTTCCTGCAAC,601
17,CTCTTGGCGGACGTTCCACATTGCCACTGACTTTGT,616
18,GGGCGATTACCGAGGCCCGCCACCGCCGGAAGGGTG,333
19,GGAGATCCGGCAAGGCTCCATCCAGCGCTGGCGACA,2590
20,TTCCAGACTACAAGAGCTTCCACTTCCTTTCTCTTG,1690
21,TGTGTAGGTTTCTGGACTATGGGGCTTCCTGGAAGT,522
22,CTACCTCCTGAGGTGACTCCACCCCTTCCTGCATCA,450
23,GGCTCCCTCGCGAACACCACGACTTCCCTCTTCCCT,431
24,ACCCTCTGTGATTTAGGCTAGCGGGCTTTCCGCCTA,438
25,GGGTGGGGCTCTGGGGCCGGGAAGTTGCAGAGGGCT,573
26,GCGATTGGGGTTCCCGCCGTATTTCCCGTTCCCCAT,795
27,TTCTTTCTTTGACAACAGATCACTTCCTCAGAAGCA,752

row,Sequence,ETS1 binding intensity
1,GGCCGAGGACTGCAGAGCCCCGGAAGCCTAGCCCCA,449
2,GGGCTTCGGCGCTGGAATTGGACCAATCCGGAATCG,394
3,CTGACGCATTTCCGGCCTTTGGGGTTGATCGGTCAT,26200
4,AGTTACAGAACCTCACTGGGGCCACATCCTCTCCAG,482
5,CGCCGTAGGAGGAAGCCGCGGCCGAAACGCTCCTGG,371
6,AACACTACACATCCTCTCTTGTTGTAGCTGCTGAAC,3140
7,CGGTGAGCTGGGGTTTAACTTCCTTATAGCAGGTTG,551
8,CAGCCAGCGCACCTCCTCCTCAGCTTCCTCTGGTGC,620
9,TTAAGGAGCTTCCGGGGCCGCGCGTAGAGGCGGGTG,5170
10,GCAGAAAGGCGCTGTCCCTCTGCGGAAGGCGCCGCT,310
11,GCCTTTGGAAACTACAGCTTCCACTTCCGCTGAGGG,4170
12,GGGTCCTTCCGGGTTTTGTGTCGAATCTACGGCGGC,7400
13,CCACTTATCGCGAGAACGCGGAGTCCTGCGGATGGC,403
14,GCCCGGGCCGCCGCGAGGCTGTCTGGGAAATGTAGT,365
15,CTCCTGTTCCGGCTCAAAGGGAATCCGCTGCTTTTC,1530
16,GTATCATTTCCCAGCTAAGAGCCCCAGAGACTCTAA,478
17,GGGGATGAGGGTCGGGAGGTAGTTCCGGGTGCGCGG,692
18,TTCAAATACCAGAGCCCAATATTGGTATTTCCGAGC,385
19,CTGGAGCCGTCCGGGTCTGGCCCCTTCGGCCGCGCA,289
20,GCAGAGAGGAAGTGTGGGGGTGGAGGAGGCCGAAGA,1840
21,GTTGTCTTCTTCCTGAGTAAATCGCAGTGCAGAGAA,2080
22,ATATCCCTGTAGGTGAAAAACATGCCGGAAGTGAAA,3030
23,CTCCTCAGCACACTGCTGCTGCCAGGAAGTGGGGGA,676
24,TGCGAACCTTGTGACTTTGTCTGTTTCCTGTTTCAG,1650
25,TGACGGCCAGGAAGCCTGAAGGCGCAGGGGCCGCCG,478
26,CCAGAACAAATCACACCCCACTTCCTGTTGCATGCA,9050
27,ACTAGAAGCGGAAGTAGTTGTAGGCGCCTTTGCAAC,8620

row,Sequence,ETS1 binding intensity
1,GCTCTTCACTTCCTGTGGCTCCCTCAGCGGCCGCCG,12400
2,CTCAGCTTGGGGCTCCGGTGTTTCCGTTTTGGGGTT,868 ± 41
3,GGCACAGGCCGAAGGGCTGAGCCGGAAGCTCCTGCC,676
4,CCGGTCGCTGAGTGATTGAGGCCGGAAGACAACGCT,16300
5,GGGCAGGTGCTTCCTTCTCTCAGAAAGCACTCCTCC,1120
6,GCTAAGCACCGACCTCGAAGCAGAGGAAGTGCAGTC,484
7,CGGCCTAGGCTTCCTGGCGTTCCTGCAGGCCTCGGA,1340
8,CTTTCTGGTTTCCTTCCTTTTTGGTCTTGGTTTCAT,2030
9,TTGCTGTAGTTTAGTCTCTGCAGCTTCCTGTTGGCT,1160
10,CCAAGTGTAAAACGGAAGCTCAACCCCGAATCTTAC,2490
11,ACGCGCGCGGGGGAGGTGGCTTCTTCCGGCCGGGCC,1860
12,TGAACTCACATAATCCGCCAAGGGGTTCCGGTGCGA,588
13,GAAGGGGAAGTCCAGGAGCATGGGTGCTTTTTTTCC,397
14,CCTCCTTCGGCCACGACACGATCACTTCCGGTTGGT,13500
15,CGTTGCCACCCTCTTAAAGGAGCCCAGGAAGGAGGC,382
16,TATCAGGCAGGCTTCCTTCAAGACCGTTGTTTTTGC,464
17,AGGTTGGGGGAAAGCACTAAGAGGAAGCAGGGTTAG,619
18,GTTGCAGGAAACGATGGGTTTTTTGGTATGAACTGC,1830
19,CTGCCGCTTCCTGGGCTGAGTCCGCCCGCTGTCCCG,3330
20,TGCGCCAGCGGGAGGGAGCAGTTCCGGGTACGGTGC,563
21,ACTCTGAGGTGTGGCCCTGAGCAAGTTCCTTCCTGT,485
22,GCACACAGTGCGTTTGGCTTCCAGCTTCCTGTTGGC,936
23,TGACCTTTGGGGTTTGGTCAGGAAGTGGGGTACTGG,549
24,GCAAGATCGCGCATTAACATCTCGGAAATGGACAGC,469
25,CCCTGCCATTTCCTGCCCAATCCCGCGTATGCAACT,17000
26,TCTTCGGGAGAGGCTGCAGCGGAGGCGGAAGCAGGA,537
